Results from article PMC4336329 (PLoS ONE, 2015).
In all, about 310,000 compounds went through this assay and about 14,000 (4.5%) showed an effect of 50% or more. The effect is printed as a negative number. The list shows a part of the results.

Each molecule was assayed against human ether-à-go-go-related gene (hERG) potassium channel (human, UniProt Q12809) (assay: primary screen, population patch clamp on CHO cells stably expressing hERG).
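Further: peak tail current of the secondary pulse compared with the same well before compound.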

human ether-à-go-go-related gene (hERG) potassium channel, sequence (Q12809 whole entry, looked up): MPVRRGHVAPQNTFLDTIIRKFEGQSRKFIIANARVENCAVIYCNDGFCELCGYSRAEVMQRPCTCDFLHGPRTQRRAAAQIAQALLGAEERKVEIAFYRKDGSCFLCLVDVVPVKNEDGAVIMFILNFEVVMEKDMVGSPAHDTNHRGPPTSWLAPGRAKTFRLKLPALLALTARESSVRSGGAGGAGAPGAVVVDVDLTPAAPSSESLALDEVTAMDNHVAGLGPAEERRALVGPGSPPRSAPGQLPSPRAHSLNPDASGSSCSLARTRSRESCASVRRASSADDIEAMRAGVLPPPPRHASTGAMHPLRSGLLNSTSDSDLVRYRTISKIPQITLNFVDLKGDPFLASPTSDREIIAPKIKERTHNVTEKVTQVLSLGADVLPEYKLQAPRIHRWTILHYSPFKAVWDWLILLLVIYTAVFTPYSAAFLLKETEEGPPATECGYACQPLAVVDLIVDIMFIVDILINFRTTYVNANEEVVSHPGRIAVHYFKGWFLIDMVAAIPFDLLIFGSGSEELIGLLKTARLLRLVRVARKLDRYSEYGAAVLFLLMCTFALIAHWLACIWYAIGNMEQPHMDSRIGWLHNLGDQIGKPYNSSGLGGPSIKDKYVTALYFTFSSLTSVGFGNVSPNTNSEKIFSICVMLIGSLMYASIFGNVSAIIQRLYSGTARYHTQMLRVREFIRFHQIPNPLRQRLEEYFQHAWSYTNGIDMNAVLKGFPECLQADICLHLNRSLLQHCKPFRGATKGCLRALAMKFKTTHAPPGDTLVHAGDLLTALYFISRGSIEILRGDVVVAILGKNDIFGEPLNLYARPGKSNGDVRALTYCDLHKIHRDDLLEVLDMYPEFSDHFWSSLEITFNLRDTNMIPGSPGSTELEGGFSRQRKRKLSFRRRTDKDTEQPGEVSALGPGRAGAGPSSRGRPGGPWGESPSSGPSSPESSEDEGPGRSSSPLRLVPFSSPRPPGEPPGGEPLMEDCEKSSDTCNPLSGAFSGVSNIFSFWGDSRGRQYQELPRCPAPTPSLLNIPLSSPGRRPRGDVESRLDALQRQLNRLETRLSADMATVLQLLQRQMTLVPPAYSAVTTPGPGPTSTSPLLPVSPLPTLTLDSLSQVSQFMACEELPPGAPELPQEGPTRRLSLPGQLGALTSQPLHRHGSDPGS

Question: For `CCC(Sc1nccn1C)C(=O)Nc1nnc(C)s1` (centres unmarked), which “hERG current change (%, negative = inhibition) at 10uM” value is on record?
Answer: 3.31%

Question: How did the “hERG current change (%, negative = inhibition) at 10uM” value turn out when `Cc1ccccc1C(=O)O/N=C(\N)Cc1cccs1` was run?
Answer: 15.7%

Question: For `COc1ccc(CN2CCNC(=O)C2CC(=O)NCCCn2cccn2)c(OC)c1` (centres unmarked), which “hERG current change (%, negative = inhibition) at 10uM” value is on record?
Answer: -37.4%

Question: `CCCCOc1ccc(/C=C/C(=O)NCCc2nc3ccccc3[nH]2)cc1` was tested. Which “hERG current change (%, negative = inhibition) at 10uM” value did it give?
Answer: -18%

Question: Which “hERG current change (%, negative = inhibition) at 10uM” value does the source give for `CSC1=NP(=S)(SC)N2CCCC2=C1C#N` (centres unmarked) here?
Answer: -1.65%

Question: Which “hERG current change (%, negative = inhibition) at 10uM” value does the source give for `COc1ccc(CN(C)S(=O)(=O)c2nnc(NC(=O)c3ccc(C)cc3)s2)cc1OC` here?
Answer: 22.2%

Question: `CCc1ccc(NC2=NC(C(=O)c3ccccc3)CC(=O)N2)cc1` (centres unmarked) was tested. Which “hERG current change (%, negative = inhibition) at 10uM” value did it give?
Answer: 1.94%

Question: With `Cc1ccc(NC(=O)c2cccc(NC3=NC4CS(=O)(=O)CC4S3)c2)cc1C` (centres unmarked) as the molecule, how does the “hERG current change (%, negative = inhibition) at 10uM” value read?
Answer: -2.07%

Question: How did the “hERG current change (%, negative = inhibition) at 10uM” value turn out when `Cc1ccc2cc(/C=N/NC(=O)CN3CCOCC3)c(Cl)nc2c1` was run?
Answer: -6.51%

Question: `CCCCn1nnc(NC(=O)c2sc3cc(Cl)ccc3c2Cl)n1` was tested. Which “hERG current change (%, negative = inhibition) at 10uM” value did it give?
Answer: 15.6%

Question: With `O=C(NCc1ccncc1)C(=O)NCC(c1ccco1)N1CCN(c2ccccc2F)CC1` (centres unmarked) as the molecule, how does the “hERG current change (%, negative = inhibition) at 10uM” value read?
Answer: 6.13%

Question: `CN(C)c1ccc(/C=C2\CCC/C(=C\c3ccccc3)C2=O)cc1` was tested. Which “hERG current change (%, negative = inhibition) at 10uM” value did it give?
Answer: -3.43%

Question: With `CN(C)S(=O)(=O)c1ccc(NC(=O)CN2CCCCCC2)cc1` as the molecule, how does the “hERG current change (%, negative = inhibition) at 10uM” value read?
Answer: 46.4%

Question: For `CCOC(=O)N1CCN(C(=O)CSc2nc(=O)n3ccccc3n2)CC1`, which “hERG current change (%, negative = inhibition) at 10uM” value is on record?
Answer: 7.65%

Question: Which “hERG current change (%, negative = inhibition) at 10uM” value does the source give for `Nc1cccc(-c2cn3cc(C(F)(F)F)cc(Cl)c3n2)c1` here?
Answer: -1.24%

Question: How did the “hERG current change (%, negative = inhibition) at 10uM” value turn out when `COCCN(C(=O)CSc1nnc(-c2ccc(C(C)(C)C)cc2)n1N)c1c(N)n(CC(C)C)c(=O)[nH]c1=O` was run?
Answer: 14.9%

Question: For `CCC1CCCCN1CCCNC(=O)C1CCCN(c2nn3c(=O)cc(C)nc3s2)C1` (centres unmarked), which “hERG current change (%, negative = inhibition) at 10uM” value is on record?
Answer: 12.2%

Question: `COc1ccc(C(=O)N2CCCN(C)CC2)cc1S(=O)(=O)N1CCCc2ccccc21` was tested. Which “hERG current change (%, negative = inhibition) at 10uM” value did it give?
Answer: -23.4%

Question: With `COC(=O)c1c(-c2ccc(SC)cc2)sc2ccccc12` as the molecule, how does the “hERG current change (%, negative = inhibition) at 10uM” value read?
Answer: 15.4%

Question: For `CCOC(=O)C1(CCOc2ccccc2)CCN(Cc2ccc(-n3cccn3)cc2)CC1`, which “hERG current change (%, negative = inhibition) at 10uM” value is on record?
Answer: -84.1%

Question: `N#C/C(=C\c1ccccc1C(F)(F)F)C(=O)Nc1ccccc1F` was tested. Which “hERG current change (%, negative = inhibition) at 10uM” value did it give?
Answer: -3.1%

Question: `O=C(c1cccc(S(=O)(=O)N2CCCC2)c1)N1CCN(c2ccccc2)CC1` was tested. Which “hERG current change (%, negative = inhibition) at 10uM” value did it give?
Answer: -13%

Question: For `Cc1ccc(N2CC(C(=O)Nc3cccc(C(=O)NC4CC4)c3)CC2=O)cc1` (centres unmarked), which “hERG current change (%, negative = inhibition) at 10uM” value is on record?
Answer: -4.71%

Question: How did the “hERG current change (%, negative = inhibition) at 10uM” value turn out when `CNCCC(Oc1ccccc1OC)c1ccccc1.Cl` (centres unmarked) was run?
Answer: -53.5%

Question: `CCCC(=O)Nc1ccc(C(=O)NCCCn2ccnc2)cc1` was tested. Which “hERG current change (%, negative = inhibition) at 10uM” value did it give?
Answer: -4.08%

Question: Which “hERG current change (%, negative = inhibition) at 10uM” value does the source give for `Cc1ccc(OCC(=O)NNC(=O)Nc2ccc(Cl)cc2)c(Br)c1` here?
Answer: 3.59%

Question: With `Cn1c(NC(=O)C[n+]2cc(-c3ccccc3)n3c2CCC3)cc(=O)n(C)c1=O.[Cl-]` as the molecule, how does the “hERG current change (%, negative = inhibition) at 10uM” value read?
Answer: -3.14%

Question: `CCn1c(=NC(=O)c2ccco2)sc2cccc(F)c21` was tested. Which “hERG current change (%, negative = inhibition) at 10uM” value did it give?
Answer: 9%

Question: For `Cc1cc(OCC(=O)Nc2ccc(Br)cc2)cc2c1C(=O)CC(C)(C)O2`, which “hERG current change (%, negative = inhibition) at 10uM” value is on record?
Answer: 2.04%

Question: How did the “hERG current change (%, negative = inhibition) at 10uM” value turn out when `Cc1ccc2nc(Cc3ccc(N)cc3)[nH]c2c1.Cl` was run?
Answer: 12%

Question: For `Cc1ccn(C(=O)c2ccc(NC(=O)C3CC3)cc2)n1`, which “hERG current change (%, negative = inhibition) at 10uM” value is on record?
Answer: 11.7%

Question: For `CCc1cccc(NC(=O)Cn2cc(C=O)c3ccccc32)c1`, which “hERG current change (%, negative = inhibition) at 10uM” value is on record?
Answer: 4.05%

Question: For `COc1cc2c(C(=O)NCCCN3CC(C)CC(C)C3)cn(CC(C)C)c(=O)c2cc1OC` (centres unmarked), which “hERG current change (%, negative = inhibition) at 10uM” value is on record?
Answer: -10.2%

Question: How did the “hERG current change (%, negative = inhibition) at 10uM” value turn out when `COc1ccccc1CNC(=O)[C@H](C)NC(=O)C1CCN(C(=O)[C@H](CCSC)NC(=O)OC(C)(C)C)CC1` was run?
Answer: 3.05%

Question: Which “hERG current change (%, negative = inhibition) at 10uM” value does the source give for `O=C1C(C2=C(O)c3ccccc3C2=O)=Nc2ccccc21` here?
Answer: -7.06%

Question: With `CCC(C)(C)n1nnnc1C(c1ccc2ncccc2c1)N1CCN(Cc2ccc3c(c2)OCO3)CC1` (centres unmarked) as the molecule, how does the “hERG current change (%, negative = inhibition) at 10uM” value read?
Answer: -69.7%

Question: With `Cc1ccc(-c2nnc(NC(=O)c3c(F)cccc3Cl)s2)cc1` as the molecule, how does the “hERG current change (%, negative = inhibition) at 10uM” value read?
Answer: 15.5%

Question: Which “hERG current change (%, negative = inhibition) at 10uM” value does the source give for `CC(=O)N1N=C(c2cccnc2)OC1c1ccccc1Cl` (centres unmarked) here?
Answer: -19.6%

Question: `COc1ccc(CNC(=O)C(C)N=C2NS(=O)(=O)c3ccccc32)cc1OC` (centres unmarked) was tested. Which “hERG current change (%, negative = inhibition) at 10uM” value did it give?
Answer: 16.7%

Question: `O=C(NCCO)c1cc2ccccc2cc1O` was tested. Which “hERG current change (%, negative = inhibition) at 10uM” value did it give?
Answer: 10.8%

Question: Which “hERG current change (%, negative = inhibition) at 10uM” value does the source give for `Cc1nc(SCC(=O)Nc2ccccc2Cl)oc1C` here?
Answer: 14.2%

Question: Which “hERG current change (%, negative = inhibition) at 10uM” value does the source give for `O=C(Nc1ccccc1C(=O)NCCc1ccccc1)c1cnccn1` here?
Answer: -24.7%

Question: `CC1CCCCN1C(=O)Cn1c(=O)oc2ccccc21` (centres unmarked) was tested. Which “hERG current change (%, negative = inhibition) at 10uM” value did it give?
Answer: -13.8%

Question: For `CN(CC(=O)Nc1ccc(Cl)c(C(F)(F)F)c1)C(=O)c1cc(=O)[nH]c2ccccc12`, which “hERG current change (%, negative = inhibition) at 10uM” value is on record?
Answer: 15.9%
